Measured values taken from PubChem BioAssay AID588795 (National Center for Advancing Translational Sciences (NCATS), 2011).
“And” between values parts separate entries of the source, which are not always exact repeats. Equal entries are not always repeated. Hit rate of the full screen: of about 390,000 compounds, about 1,400 (0.36%) were called active. The inconclusive results got no clear call from the source; some entries with a clear call stand among them for comparison. Calls follow the shape of the dose curve; as a rule, active = well fitted inhibition curve with a large enough effect; inconclusive = small, poorly fitted or top-dose-only effect; inactive = no such curve, though single readings can be large or run the other way. Potencies of inconclusive entries are doubtful fits and often do not repeat.

target: Flap endonuclease 1 (Homo sapiens) (UniProt P39748); experiment: qHTS Assay for the Inhibitors of Human Flap endonuclease 1 (FEN1).; also: nearly all actives have a fitted effect of over 65% in size; conditions: Recombinant FEN1 flap cleavage, fluorescence, 15 min; series mostly up to 114 µM
Chain of UniProt P39748 (P39748 whole entry, looked up): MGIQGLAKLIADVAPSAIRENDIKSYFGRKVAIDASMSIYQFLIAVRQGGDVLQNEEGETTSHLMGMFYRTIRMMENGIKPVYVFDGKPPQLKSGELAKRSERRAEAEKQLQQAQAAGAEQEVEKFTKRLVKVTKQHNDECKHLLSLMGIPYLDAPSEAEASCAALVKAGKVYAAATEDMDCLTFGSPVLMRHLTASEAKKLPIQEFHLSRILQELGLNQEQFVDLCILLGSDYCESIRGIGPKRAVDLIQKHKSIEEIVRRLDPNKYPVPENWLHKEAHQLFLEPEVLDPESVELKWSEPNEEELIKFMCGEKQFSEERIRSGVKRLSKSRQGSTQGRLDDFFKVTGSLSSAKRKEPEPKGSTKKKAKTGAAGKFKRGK
How it was run: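 Nuclease activity of 10 nM FEN1 was measured after 15 min of room-temperature exposure to titrated compounds, by adding 50 nM flap substrate and reading plates at 0 and 15 min.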
Potency is read from the fitted curve at half-maximal effect; tags tell the direction and shape of the fitted curve.

Row | SMILES | Potency
1 | CCN(CC)c1ccc(C(=C2C=CC(=[N+](CC)CC)C=C2)c2ccc(S(=O)(=O)O)cc2S(=O)(=O)[O-])cc1 | inconclusive: 89.1 µM [inhibitor, single point]
2 | COc1ccccc1Nc1c2ccccc2nc2ccccc12 | inconclusive: 56.2 µM [inhibitor, partial curve, poor fit]
3 | O=C(O)C(c1ccccc1)N1C(=O)/C(=C\c2ccc(O)c(O)c2)SC1=S (stereo not given) | inconclusive: 7.94 µM [inhibitor, full curve, poor fit]
4 | Cc1ccc(NC(=O)Nc2ccc(S(N)(=O)=O)cc2)cc1 | inactive
5 | CC1=Nc2ccccc2/C1=C/c1sc(=S)n(-c2cccc(C(=O)O)c2)c1O | inconclusive: 89.1 µM [inhibitor, single point]
6 | N#C/C(=C/c1ccc(O)c(O)c1)c1nc2ccccc2[nH]1 | inconclusive: 12.6 µM [inhibitor, full curve, poor fit]
7 | CCCCC(=O)OC1=C(C(=O)c2ccccc2)N(CCC)S(=O)(=O)c2ccccc21 | inconclusive: 89.1 µM [inhibitor, partial curve, poor fit]
8 | COc1ccc(COCC(O)CN2CCC(CN3C(=O)c4cccc5cccc(c45)C3=O)CC2)cc1OC (stereo not given) | inconclusive: 50.1 µM [inhibitor, partial curve]
9 | Cc1cc(C)c2c(=O)n(CC(=O)NCCCN3CCN(c4ccccc4F)CC3)sc2n1 | inconclusive: 20 µM [inhibitor, partial curve, poor fit]
10 | CC(C)(C)n1ncc2c(=O)n(Cc3ccc(C#N)c(F)c3)cnc21 | inactive
11 | CCCSc1nnc(NC(=O)c2sc3nc(-c4cccs4)ccc3c2N)s1 | inconclusive: 89.1 µM [inhibitor, single point]
12 | Brc1ccc2nc(-c3c[nH]c4ccccc34)cn2c1 | inconclusive: 28.2 µM [inhibitor, partial curve, poor fit]
13 | COc1cccc(/C=C2\SC(=O)NC2=O)c1OCc1ccc(C(=O)O)cc1 | inactive
14 | NS(=O)(=O)c1ccc(Nc2nc(-c3cccc([N+](=O)[O-])c3)cs2)cc1 | inconclusive: 89.1 µM [inhibitor, single point]
15 | C#CCOCCOCCOCCNc1nc(N2CCN(C(=O)CCCCCCCCCCNC(=O)[C@H](CCCCN)n3cc(C)nn3)CC2)nc(N2CCN(C(=O)CCCCCCCCCCNC(=O)[C@H](CO)n3cc(CCCSC)nn3)CC2)n1 | inconclusive: 56.2 µM [inhibitor, partial curve, poor fit]
16 | CCCc1nn2c(=O)cc(COC(=O)c3ccccc3NC(=O)COc3ccccc3F)nc2s1 | inactive
17 | Cc1nc(N2CCN(C(=O)c3ccco3)CC2)c2c3c(sc2n1)CC(C)CC3 (stereo not given) | inconclusive: 28.2 µM [inhibitor, partial curve, poor fit]
18 | COc1ccc(NC(=O)CSc2nc(-c3ccco3)cc(C(F)(F)F)n2)cc1OC | inactive
19 | CCOc1ccc(CCNC(=O)c2cc3c(=O)oc4ccc(C)cc4c3s2)cc1OCC | inactive
20 | O=C(Nc1ccc(Cl)c(Cl)c1)N1CCSC1c1ccco1 (stereo not given) | inactive

Row | SMILES | Potency
21 | Cc1noc(NS(=O)(=O)c2ccc(NC(=O)CSc3nnc4c(n3)[nH]c3ccccc34)cc2)c1C | inactive
22 | N#C/C(=C\c1ccc(-c2ccc(C(=O)O)cc2)o1)C(=O)Nc1ccccc1C(=O)O | inconclusive: 28.2 µM [inhibitor, partial curve, poor fit]
23 | Cc1cccc(NS(=O)(=O)c2c(C)nc3sccn3c2=O)c1C | inactive
24 | O=C(COC(=O)CNS(=O)(=O)c1ccc2ccccc2c1)Nc1ccccc1Sc1ccccc1 | inconclusive: 56.2 µM [inhibitor, partial curve, poor fit]
25 | O=C1NC(=S)S/C1=C/c1ccc(OC(=O)c2ccco2)cc1 | inactive
26 | O=S(=O)(c1ccc(-c2csc(-c3cccnc3)n2)cc1)N1CCCCC1 | inconclusive: 89.1 µM [inhibitor, partial curve, poor fit]
27 | CC(C)(C)CC(C)(C)N=C1Nc2ccccc2N[C@]12C[C@H]1CCCC(=O)N3CC[C@@H](C2)[C@@H]13 | inconclusive: 35.5 µM [inhibitor, partial curve, poor fit]
28 | COc1ccc(CNc2cccnc2)c(OC)c1OC | inactive
29 | Cc1[nH][nH]c(=O)c1C(c1c(C)[nH][nH]c1=O)c1cn(Cc2ccc(F)cc2)c2ccccc12 | inconclusive: 56.2 µM [inhibitor, partial curve, poor fit]
30 | Oc1ccc(-c2n[nH]c(=S)n2-c2ccc3c(c2)OCCO3)c(O)c1 | inactive
31 | CCCCCCc1ccc(N2C[C@H](Cc3ccccc3)[C@@H](CC(=O)Nc3ccccc3)C2=O)cc1 | inconclusive: 50.1 µM [inhibitor, partial curve, poor fit]
32 | O=C(CSc1nc2sc3c(c2c(=O)n1-c1ccccc1)CCCC3)N/N=C/c1ccccc1C(=O)O | active: 50.1 µM
33 | CCc1ccc(C(=O)c2cn(CC(=O)Nc3ccc4c(c3)OCO4)c3ccc(OC)cc3c2=O)cc1 | active: 31.6 µM
34 | COc1ccc(OC)c(CNC(=O)C(C)n2c(C)c3cnn(-c4ccccc4)c(=O)c3c2C)c1 (stereo not given) | inactive
35 | CC(C)(C=O)C1=CC(=O)c2ccccc2C1=O | inconclusive: 89.1 µM [inhibitor, single point]
36 | COc1cc(NC(=O)c2cccc3c2C(=O)N(C2CCCCC2)C3)cc(OC)c1OC | inconclusive: 50.1 µM [inhibitor, partial curve, poor fit] and inconclusive: 17.8 µM [inhibitor, partial curve, poor fit]
37 | CC(=O)Oc1cc2cccc(OC(C)=O)c(=O)c2c(OC(C)=O)c1OC(C)=O | active: 1.12 µM
38 | COc1ccc(/C=C/C(=O)Nc2nc3n(n2)C(c2ccc(F)cc2)C=C(c2ccccc2)N3)cc1 (stereo not given) | inactive
39 | O=C(NC1CCCC1)c1sc(=S)n2c1[nH]c(=O)c1ccccc12 | inconclusive: 56.2 µM [inhibitor, partial curve]
40 | Cc1ccc2nc(-c3cccc(-c4nc5ccc(C)cc5o4)n3)oc2c1 | inconclusive: 89.1 µM [inhibitor, single point]
